Drawing on the RNAGym collection of RNA variant scans (doi:10.1093/nar/gkz1192), this text covers self-cleavage for 83 variants.

Read counts are not given, so values of variants with three or more changes are uncertain.

The chains are these.
B1: CPEB3 Ribozyme (parent)
chain: UAACAGGGGGCCACAGCAGAAGCGUUCACGUCGCAGCCCCUGUCAGAUUCUGGUGAAUCUGCGAAUUCUGCUGUAUAUCUC

This series covers variants of B1. Briefly: self-cleavage, relative activity (ratio to wild type); higher = more cleavage; in vitro, sequencing. In a few lines:
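Relative activity was defined as the cleaved/total read fraction for a variant divided by the same fraction for the unmutated ribozyme. CPEB3 self-cleaving ribozyme libraries were made by rounds of error-prone PCR, barcoded, and transcribed in vitro with T7 RNA polymerase for 5 hours at 37°C, and cleavage ran through transcription plus a 15 min DNase I step before EDTA. Illumina sequencing of template-switched reverse transcripts gave the reads, and DNA sequencing mapped the barcodes. Averages come from three batches, using variants with at least 5 reads.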
For the variant A5U U48C U69C, the self-cleavage is 0.72.

As to G6A U31C U43C C50A U69A, the self-cleavage amounted to 0.04.

As to G6A G16A A45U A57U, the self-cleavage amounted to 0.2.

As to G6A A13U U26A, the self-cleavage worked out at 0.31. Take A5U U43A A56G: the self-cleavage amounted to 1.05. With G6A A15G U31C U80C, the self-cleavage came to 0.54. In the case of A5U U51A A64G U69G U72A, the self-cleavage came to 0.51. As for A5U U51G G52A G53A G70A, the self-cleavage is 0.34. As to A5U U69C U80C, the self-cleavage worked out at 0.6. Take A5U U69C U80A: the self-cleavage was found to be 1.07.

In the case of A5U U31A U72A, the self-cleavage came out at 0.42. For the variant A5U U41C U67C, the self-cleavage was found to be 0.34. The value for G6A A21G A35U was 0.07; that for G6A A20G A28G G33A G63U U66C C71G was 0.09. The value for A5U U41C U54A U67A was 0.44; that for G6A U31A U41A was 0.2; that for G6A A15C A18G G36A was 0.24. The value for A5U U31C G33A A35G C40U U48C U67A was 0.12; that for G6A G7U G8A A13U U41A U72C was 0.07. In the case of G6A U54C A65G, the self-cleavage stood at 0.11. The value for G6A G8U C40U U49A was 0.06; that for G6A A15U A47U A57U G70A U80C was 0.07.

On to G6A U49A U72A A77U U80C, for which the self-cleavage is 0. As for A5U U31C G63U, the self-cleavage was determined as 0.88. For G6A G10A A57G U58A, the self-cleavage was determined as 0.17. Regarding G6A C29G U48C U51C U54G, the self-cleavage stood at 0.07. Turning to G6A U25A A28U U31A U43C, the self-cleavage worked out at 0.23. Regarding G6A A20U A45U A47G U54A U76A, the self-cleavage stood at 0.05. Then G6A U54C C59G U72G, with 0.05; and A5U U41A A64U, with 0.1; and G6A A18G U26A, with 0.31. G6A A13U A15G: the self-cleavage was 0.09.

G6A A13C U25A U60C A64G A75U: the self-cleavage is 0.08. For the variant A5U U41C U58C U69A, the self-cleavage amounted to 0.22.

Turning to G6A A18U U25C C32A U80A, the self-cleavage amounted to 0.33. On to G6A A47G U54C, for which the self-cleavage was found to be 0.31. As for A5U U41C U54A U69C U74G, the self-cleavage amounted to 0.87. Then A5U U41C U54A A64G, with 0.64; and G6A A35U A64G, with 0.53; and G6A A13G U25A C27U U69A A75U, with 0.13. The value for G6A G10A A18U U26C U48A was 0.06; that for G6A A21G A35G U41A A57G U67C was 0.05; that for A5U U31C A56U C71A was 0.18. Then G6A A20G U41A U51C, with 0.13; and G6A U26C U74A U78C, with 0.05. As for G6A U31C U43A A57G A64G U66C, the self-cleavage amounted to 0.07. Take G6A A20G U41G U48C U69C: the self-cleavage stood at 0.12. Turning to A5U U41C U69G U80C, the self-cleavage came out at 0.42. As to A5U U31C C40U U43C A57G, the self-cleavage was 0.08.

In the case of A5U U26C U60C U76C, the self-cleavage was determined as 0.34. As for G6A U43A U69A U80A, the self-cleavage is 0.08. As for G6A A56G U72G, the self-cleavage stood at 0.06. Regarding G6A U25C U60C C62A A65G, the self-cleavage is 0.19. Turning to A5U U49C A64U U69C, the self-cleavage is 0.09. Regarding G6A C32A U51A U76C U80C, the self-cleavage turned out to be 0.19. For G6A G10A A35G, the self-cleavage is 0.65. On to A5U U41G U43A U48C, for which the self-cleavage stood at 0.62. As to G6A A15G G55A U58C A75U, the self-cleavage is 0.25. Then A5U U58C A64U A77G, with 0.16; and G6A A20G A21C U26A, with 0.6.

With A5U U31A U80A, the self-cleavage is 0.98. Consider A5U U31C U41C U49C, for which the self-cleavage was determined as 0.31. For the variant G6A G9C C40U C44U A47G U48C U67C, the self-cleavage was found to be 0.05. With G6A A15G G24C G36C U74C A75G, the self-cleavage is 0.05. With G6A A20G U72A A77G, the self-cleavage came to 0.33. Then G6A G9A A18G A45G U54C A64G A75U, with 0; and A5U U60C C62A, with 0.29; and G6A U41A A45G U72A, with 0.07. As for A5U U41C U51C G52A U66A U74C, the self-cleavage amounted to 0.39.

As to G6A U48C U76C, the self-cleavage was 0.48. In the case of G6A U43C G53A A75G, the self-cleavage was determined as 0.16. In the case of G6A A35G U51C, the self-cleavage stood at 0.65. G6A U43A U48C: the self-cleavage was found to be 0.39.

For G6A A18G U41A U43A A56U C71G, the self-cleavage was 0.04. G6A G16A A45U: the self-cleavage was found to be 0.17.

For the variant A5U U49A A64G, the self-cleavage is 0.74. The value for G6A A15G U31A U43C was 0.33. On to A5U U51A A64G, for which the self-cleavage was 1.02. Regarding G6A A20G U69C, the self-cleavage stood at 0.2. As to A5U U48C A56U C71G, the self-cleavage amounted to 0.12.

For G6A A20G A65U, the self-cleavage was found to be 0.4. For G6A G22C A45U G55C A56G A75G U80C, the self-cleavage is 0.04.

With A5U U41A A56G, the self-cleavage amounted to 0.24.
